Data as given in PubChem BioAssay AID1159614 (National Center for Advancing Translational Sciences (NCATS), 2016).
Among all 45,000 compounds or so, about 65 (0.1%) were called active. Calls follow the shape of the dose curve; as a rule, active = well fitted activation curve with a large enough effect; inconclusive = small, poorly fitted or top-dose-only effect; inactive = no such curve, though single readings can be large or run the other way. The list shows a part of the results.

biological target: Galactocerebrosidase (Homo sapiens) (UniProt P54803); experiment: A Novel Cell-Based Assay to Identify Small Molecules for B -Galactocerebrosidase; conditions: 145M-Twi-hGALC-G270D cells (Twitcher mouse brain line with human GALC G270D), HMU-beta-Gal fluorescence, 48 h; series mostly up to 57.5 µM; activation: at the top concentration; also: 0% is about no effect; nearly all actives have a fitted effect of over 65% in size
UniProt P54803, sequence (P54803 whole entry, looked up): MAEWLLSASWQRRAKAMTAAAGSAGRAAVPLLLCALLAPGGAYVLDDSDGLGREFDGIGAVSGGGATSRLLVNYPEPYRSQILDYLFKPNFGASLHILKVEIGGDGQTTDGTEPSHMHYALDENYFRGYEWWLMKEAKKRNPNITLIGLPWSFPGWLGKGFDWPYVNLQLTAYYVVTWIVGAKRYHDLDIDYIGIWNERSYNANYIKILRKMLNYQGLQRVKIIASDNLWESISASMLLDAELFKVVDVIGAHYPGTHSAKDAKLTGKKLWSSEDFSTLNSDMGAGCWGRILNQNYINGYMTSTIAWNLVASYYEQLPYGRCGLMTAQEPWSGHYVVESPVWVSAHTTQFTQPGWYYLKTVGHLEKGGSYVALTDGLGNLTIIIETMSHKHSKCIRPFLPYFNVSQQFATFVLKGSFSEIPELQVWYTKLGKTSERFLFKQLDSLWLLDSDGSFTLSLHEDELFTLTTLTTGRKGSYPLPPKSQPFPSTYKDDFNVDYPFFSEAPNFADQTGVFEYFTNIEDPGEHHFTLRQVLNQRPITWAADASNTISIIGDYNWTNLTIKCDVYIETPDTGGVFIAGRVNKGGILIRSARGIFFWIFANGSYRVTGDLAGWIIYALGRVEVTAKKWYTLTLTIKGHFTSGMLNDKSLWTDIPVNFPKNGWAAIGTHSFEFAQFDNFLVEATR
In short: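 Fluorescence readout: HMU-β-gal cleavage by mutant GALC (0.1 mM final, citrate/phosphate pH 5.2 with 1 mg/mL taurocholate), stopped with carbonate/bicarbonate plus Triton X-100. Cells: murine Twitcher 145M-Twi expressing human G270D GALC; qHTS for activators.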

activation, inactive:
CCOc1ccc(CNC(=O)C2CCN(Cc3cc4ccccc4n3Cc3ccccc3C)CC2)cc1 1.67%, CC(O)C(=O)O (stereo not drawn) -11.8%, CCCSc1nnc2n(-c3ccc(OC)cc3)c(=O)c3c4c(sc3n12)COC(C(C)C)C4 (stereo not drawn) -19.6%, CCc1ccc(NC(=O)CCCn2nc(C)c3c(C)n(-c4ccccc4)nc3c2=O)cc1 -11.2%, CC(C)CC(C(=O)NCCc1ccccc1)N1Cc2ccccc2C1=O (stereo not drawn) -2.37%, Cc1nn(C(C)(C)C)c(OC(=O)c2cccc(F)c2)c1Sc1ccccc1 -18.2%, CCc1ccc(CN(Cc2ccco2)C(=O)COc2ccc(Cl)cc2C)cc1 -47%, Cc1c(CNC2CCCCCC2)c(C(=O)O)c(C)n1Cc1ccc(F)cc1 -19.3%, Cc1cccc(NC(=O)C2(C)Cc3ccccc3C(=O)O2)c1 (stereo not drawn) -18.7%, Cc1ccc(NC(=O)C(=O)NCCCN2CCOCC2)cc1C -22.9%, CC(=O)Nc1ccc2nc(SCCOc3ccccc3)sc2c1 -15.1%, Clc1ccccc1-c1nnc(-c2ccccc2CNc2ccccc2)o1 -15.4%, COc1ccc(NC(=O)C2CCC(CNS(=O)(=O)c3cccs3)CC2)cc1OC (stereo not drawn) -10.2%, OC(CN1CCC(Cc2ccc(F)cc2)CC1)c1ccc(Cl)cc1 (stereo not drawn) -23.7%, CCn1nnc2cc(C(=O)Nc3cccc(C)c3C)ccc21 -10.7%, Cc1ccc(C)c(N2CCN(S(=O)(=O)c3csc(C(N)=O)c3)CC2)c1 -10.8%, COc1ccccc1CNC(=O)c1cc2ccc3ccc(C)[nH]c3c2n1 -28.7%, Cc1ccccc1CSCCNC(=O)CN(c1ccccc1)S(=O)(=O)N(C)C -25.7%, Cc1cccc(CC(=O)Nc2cccc(-c3nc4cccnc4s3)c2)c1 -11.1%, CCN1CCc2c(sc(-n3cccc3)c2C(C)NC(=O)Nc2ccccc2C)C1 (stereo not drawn) -4.96%, Cc1ccc(C)c(CSc2cn(CCNC(=O)c3ccccc3F)c3ccccc23)c1 1.09%, COc1cccc(C(C(=O)NCc2ccccc2)N(C(=O)Cn2nnc3ccccc32)c2cccc(C(C)=O)c2)c1 (stereo not drawn) -6.36%, Cc1cccc(Oc2ccc(NC(=O)CCC(=O)OCC(=O)c3ccc(Br)cc3)cc2)c1C -12.3%, COc1ccc(Cc2c(C)nn(-c3nc(C)c(C(=O)Nc4ccc(C)cc4C)s3)c2C)cc1 -22.6%, COc1cc(C2c3c(-c4ccccc4O)n[nH]c3C(=O)N2CCO)ccc1OCC(C)C (stereo not drawn) -15.3%, COc1ccc(NC(=O)c2oc3ccc(S(=O)(=O)N4CCC5(CC4)OCCO5)cc3c2C)cc1Cl -5.89%, Cc1ccc(NC(=O)Cn2nnc3sc4c(c3c2=O)CCCC4)c(C)c1 -16.1%, O=C(/C=C/c1ccc(Cl)cc1)Nc1nc(-c2cccs2)ns1 -0.496%, Cc1cc(C)c(Cn2c3ccccc3c3cnn(CC(=O)NCC(C)c4ccccc4)c(=O)c32)c(C)c1 (stereo not drawn) 2.67%, CCCCc1ccc(NC(=O)CSc2nnc3[nH]c(=O)cc(C)n23)cc1 -6.29%, CCN(CC)CCNC(=O)c1cc2c(=O)oc3ccc(C)cc3c2s1 -8.03%, CCCN(CCC)C(=O)CSc1nnc2cc(C)c3ccccc3n12 -5.47%, CCCN1CCN(CCCNC(=O)c2ccc(CS(=O)c3ccc(OC)cc3)o2)CC1 (stereo not drawn) -8.63%, COc1cc(OC)c(NC(=O)CCNS(=O)(=O)c2ccc3c(c2)oc(=O)n3C)cc1Cl -7.01%, CC(=O)N1CCCc2cc(S(=O)(=O)N(Cc3ccccc3)C(C)C)ccc21 -24.9%, COc1ccc(-n2c(CCC(=O)O)ccc2-c2ccccc2)c(OC)c1 -6.45%, CCn1cc(C(=O)NCc2ccc(F)cc2)c(=O)c2cc(S(=O)(=O)N(C)C)ccc21 -18.1%, COc1ccccc1N1CCN(S(=O)(=O)c2ccc(-c3cnc(C4CC4)o3)cc2)CC1 -13%, CC(C)CCNC(=O)c1cn(C)c2ccc(S(=O)(=O)N3CCOCC3)cc2c1=O -1.45%, Cc1ccc2occ(CC(=O)N3CCN(c4cccc(Cl)c4)CC3)c2c1 -14%, Cc1ccc(CNC(=O)CSC2=Nc3ccccc3C3=NC(C)C(=O)N23)cc1 (stereo not drawn) -25.2%, CCCN1CCN(CCCNC(=O)Cn2c(-c3cccs3)cc3cc(Cl)ccc32)CC1 -4.79%, Cc1cc(Cl)ccc1NC(=O)c1cc2ccccn2n1 -13.8%, CCOC(=O)c1ccccc1NC(=O)c1nn(C)c2c1COc1ccccc1-2 -10.8%, CC(=O)Nc1cccc(NC(=O)C(=O)NCCc2csc3nc(-c4ccccc4F)nn23)c1 -8.44%, CC(=O)c1cccc(NC(=O)c2nc(-c3ccccc3)n(-c3cccc(C)c3)n2)c1 -33.6%, CCC1CCCCN1Cc1cn2c(-c3ccc(Br)cc3)nnc2s1 (stereo not drawn) -6.89%, CCOc1ccccc1NC(=O)CN1CCN(S(=O)(=O)c2ccc(Br)cc2)CC1 -5.94%, CCC(C)NC(=O)CSc1nc2cc3c(cc2c(=O)n1CCCCCC(=O)NCc1ccc(OC)cc1)OCO3 (stereo not drawn) -7.92%, O=C(Nc1nc2n(n1)C(c1ccc(F)cc1)C=C(c1ccccc1)N2)c1cccc([N+](=O)[O-])c1 (stereo not drawn) -7.34%, COc1c(Cl)cc(Cl)cc1CNCCSc1nnnn1C -17.8%, COc1cc2c(cc1OC)C(COc1ccccc1OC)N(C(=O)c1ccccc1OC)CC2 (stereo not drawn) -16%, CCc1cccc(NC(=O)CCS(=O)(=O)c2cc3c4c(c2)CCN4C(=O)CC3)c1 -16%, Cc1c(Cl)cccc1-n1nc(C)c2c(C)cc(=O)n(CC(=O)NCc3ccccc3)c21 -29.6%, Cc1cccc(C(=O)Nc2cccc(OCc3cc(=O)n4ccccc4n3)c2)c1 -8.89%, COc1cc(OC)c(NC(=O)c2c3c(nc4ccccc24)C(=O)N(C2CCCCC2)C3)cc1Cl -3.16%, COc1cc2c(=O)c(S(=O)(=O)c3ccccc3)cn(CC(=O)Nc3ccccc3C)c2cc1OC -1.37%, Cc1cc(C)c(NC(=O)Cn2c(=O)n(Cc3ccccc3)c(=O)c3c(C)c(C(=O)N(C)C)sc32)c(C)c1 -11%, COc1ccc(C(=O)N2CCN(c3nc4c(C)c(Cl)ccc4s3)CC2)c(OC)c1 -5.95%, CCOc1ccc(NC(=O)CN(C)S(=O)(=O)c2ccc3[nH]c4c(c3c2)CCCC4)cc1 -12.4%, CCc1ccc(CNC(=O)c2ccc(CS(=O)(=O)Cc3cccc(C)c3)o2)cc1 -4.25%, O=C(NCc1ccc(Cl)cc1)c1ccc2c(c1)N(Cc1ccccc1F)C(=O)c1ccccc1S2=O (stereo not drawn) 4.27%, CCC(C(=O)NCCc1ccc(Cl)cc1)n1ccc2cc(S(=O)(=O)N3CCCCC3)ccc21 (stereo not drawn) -8.16%, COc1ccc(CCNC(=O)C(=O)NCC(c2cccnc2)N2CCN(c3ccccc3)CC2)cc1 (stereo not drawn) -7.37%, Cc1ccc(NC(=O)C2CCCN(S(=O)(=O)c3ccc4c(c3)CCCC(=O)N4)C2)cc1Cl (stereo not drawn) -47%, COc1ccc(N(C)C(=O)c2cc3c(s2)-c2ccccc2OC3)cc1 -6.57%, Cc1ccc(Cl)cc1N1CCN(C(=O)C2CCCN(Cc3nc(-c4cccc(Cl)c4)oc3C)C2)CC1 (stereo not drawn) -13.1%, CCCCNc1nc2c(c(=O)n(Cc3ccccc3)c(=O)n2C)n1C -3.97%, Cc1cc(C(=O)Nc2cccc(C)c2C)c2c(C)nn(-c3cccc(F)c3)c2n1 -10%, COc1cc(OC)c(OC)cc1/C=C/c1nc2ccccc2c(=O)n1-c1ccc(Br)c(C)c1 -10.5%, Cc1ccc(NC(=O)Cn2c(=O)ccc3cc(S(=O)(=O)N4CCCC4)ccc32)cc1N(C)C -7.48%, O=C(c1ccc(Cl)cc1)c1cn(Cc2ccccc2)c2cc3c(cc2c1=O)OCCO3 -12%, CCCCNC(=O)c1ccc2c(c1)NC(=O)C(CS(=O)(=O)Cc1ccc(F)cc1Cl)N2 (stereo not drawn) -17.9%, COc1cccc(-c2ccc3c(N)c(C(=O)Nc4ccccc4C)sc3n2)c1 -3.26%, CC(=O)Nc1ccc(S(=O)(=O)N(Cc2ccccc2)Cc2ccccc2)cc1 7.65%, CCOc1ccccc1-c1nc(C(N)=O)c2c(n1)n(-c1ccc3c(c1)OCO3)c(=O)n2C -14.5%, CCn1c(=O)cc(SCC(=O)NCc2ccc(C)cc2)c2ccccc21 -15.3%, C=Cc1ccc(Cn2c(=O)n(CC3CCC(C(=O)NC(C)C)CC3)c(=O)c3sccc32)cc1 (stereo not drawn) -16.2%, O=C(NCc1ccco1)c1ccc2c(c1)N(Cc1ccccc1F)C(=O)c1ccccc1S2(=O)=O -19%, COCCNc1ccc(-c2nc(-c3ccccn3)no2)cc1[N+](=O)[O-] -24.1%, Nc1ccc2oc(Cc3ccc(Cl)cc3)nc2c1 -8.19%, COc1ccc(C)cc1NC(=O)Cc1c(C(=O)O)c(C)cn1C -9.97%, CC(C)CCNC(=O)c1ccc2c(c1)nc1n2CCCCC1 -0.255%, CCCC(=O)Nc1ccc2nc(SCc3ccc(C)cc3)sc2c1 -12.2%, Cc1cccc(N2CCN(c3nc4ccccc4c4nc(-c5cccnc5)nn34)CC2)c1C -12.2%, Cc1ccc(CCNC(=O)c2cc3c(=O)n(C)c4ccccc4c3n2C)cc1 -9.79%, CC(=O)c1cccc(NC(=O)CSc2nc3c(=O)n(C)c(=O)n(C)c3n2C)c1 1.9%, CC(C)CCn1c(=O)c2sccc2n2c(CCCC(=O)NC(C)c3ccccc3)nnc12 (stereo not drawn) -11.1%, Cc1cccc(-n2cnc3cc(C(=O)NC4CCCCCC4)ccc32)c1 -50%, Cc1cccc(OCC(=O)Nc2ccccc2C(=O)OCc2cc(=O)n3nc(C4CC4)sc3n2)c1 -6.25%, CCc1cnc2c(c1SCCC(C)C)c(=O)n(C)c(=O)n2C -7.82%, CCOC(=O)c1ccc(NC(=O)c2c(NCc3cc(OC)ccc3OC)sc3c2CCC3)cc1 -9.06%, Cc1ccc2cc3cc(C(=O)N(C)c4ccccc4C)oc3nc2c1 -10.1%, CCc1cccc(N2C(=O)N(Cc3c(F)cccc3Cl)c3ccccc3S2(=O)=O)c1 -2.65%, CCn1cc(C(=O)Nc2ccc(C(C)C)cc2)c2cc(OC)c(OC)cc2c1=O -5.74%, Cc1cccc(C)c1NC(=O)CN1C(=O)c2ccccc2Sc2ncccc21 -17.7%, COc1ccc(C)cc1NC(=O)CN1CCN(S(=O)(=O)c2ccc(Br)cc2)CC1 10.8%, COC(=O)c1cc2sc(C)cc2n1CC(=O)Nc1ccc(C)cc1Cl -14.8%
